# Test results as given in patent publication US20070101461A1, “Method for Improving Phytoremediation Treatment of a Contaminated Medium” (priority 2001, published 2007).
# Legend:
# [1] = test system: Pisum sativum var. Early Onward; experiment: survival of plants in the presence of 2,4-D; type: in vivo; conditions: Pea, 1 mg/l 2,4-D
# [2] = test system: Pisum sativum var Early Onward; experiment: phyto-toxic effects of 2,4-D on pea plants (roots, chlorophyll)
smiles,measurement,setting,value
"O=C(O)COc1ccc(Cl)cc1Cl [2,4-D, 2,4-dichlorophenoxyacetic acid]","Dead plants, Non-inoculated plants + 2,4-D",[1],80%
same,"Healthy plants, Non-inoculated plants + 2,4-D",[1],20%
same,chlorophyll a and b levels,"[2]; applications of 2,4-D",statistically significant reductions
same,root systems of non-inoculated plants,"[2]; even at the lowest level of 2,4-D tested",severe callus formation and root thickening
